Measurements: publication PMC4336329 (PLoS ONE, 2015)
Out of some 310,000 compounds screened, about 14,000 (4.5%) showed an effect of 50% or more. Effects have a minus sign here. This is one part of the list.

biological target: human ether-à-go-go-related gene (hERG) potassium channel (human, UniProt Q12809); test: primary screen, population patch clamp on CHO cells stably expressing hERG
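Further: peak tail current of the secondary pulse compared with the same well before compound.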

human ether-à-go-go-related gene (hERG) potassium channel, sequence (Q12809 whole entry, looked up): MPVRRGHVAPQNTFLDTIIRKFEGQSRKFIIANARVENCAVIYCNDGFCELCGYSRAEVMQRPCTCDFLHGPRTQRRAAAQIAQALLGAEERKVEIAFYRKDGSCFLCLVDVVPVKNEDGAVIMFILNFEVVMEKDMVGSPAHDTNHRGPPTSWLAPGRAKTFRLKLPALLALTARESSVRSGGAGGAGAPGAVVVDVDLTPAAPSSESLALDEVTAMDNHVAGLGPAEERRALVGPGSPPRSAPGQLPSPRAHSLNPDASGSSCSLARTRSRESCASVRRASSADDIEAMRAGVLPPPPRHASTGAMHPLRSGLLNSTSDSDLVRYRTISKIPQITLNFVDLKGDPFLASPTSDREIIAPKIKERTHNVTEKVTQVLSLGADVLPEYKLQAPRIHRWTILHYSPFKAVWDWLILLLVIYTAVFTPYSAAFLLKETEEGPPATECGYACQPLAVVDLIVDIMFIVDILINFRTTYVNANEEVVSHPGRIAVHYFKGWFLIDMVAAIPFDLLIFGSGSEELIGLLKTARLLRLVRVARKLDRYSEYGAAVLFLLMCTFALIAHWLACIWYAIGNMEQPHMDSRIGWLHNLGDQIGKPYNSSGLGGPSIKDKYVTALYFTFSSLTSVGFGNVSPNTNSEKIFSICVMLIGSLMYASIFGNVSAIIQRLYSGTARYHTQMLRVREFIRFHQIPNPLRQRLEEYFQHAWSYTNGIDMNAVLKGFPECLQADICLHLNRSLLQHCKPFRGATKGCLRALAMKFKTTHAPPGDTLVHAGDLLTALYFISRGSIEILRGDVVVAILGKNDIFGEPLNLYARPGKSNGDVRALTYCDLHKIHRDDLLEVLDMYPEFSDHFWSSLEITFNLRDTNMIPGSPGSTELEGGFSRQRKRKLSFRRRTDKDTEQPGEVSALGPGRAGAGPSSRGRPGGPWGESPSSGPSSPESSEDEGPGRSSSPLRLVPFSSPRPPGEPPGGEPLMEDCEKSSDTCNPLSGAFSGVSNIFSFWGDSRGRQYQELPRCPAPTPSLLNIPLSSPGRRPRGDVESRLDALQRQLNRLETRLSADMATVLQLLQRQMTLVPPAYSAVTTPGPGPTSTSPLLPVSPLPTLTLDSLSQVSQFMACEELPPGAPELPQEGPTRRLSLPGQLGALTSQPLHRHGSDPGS

How did the “hERG current change (%, negative = inhibition) at 10uM” value turn out when Cc1ccc(C(=O)C=CNNC(=O)c2ccccc2)cc1 was run?
The value was -35.8%.

How did the “hERG current change (%, negative = inhibition) at 10uM” value turn out when Cc1ccc(OCCNC(=O)CNC(=O)c2ccccc2Cl)cc1 was run?
The value was -3.58%.

CCc1cccc2c(C(=O)C(NCCCOC)c3ccccc3)c[nH]c12 (stereo not shown) was tested. Which “hERG current change (%, negative = inhibition) at 10uM” value did it give?
Its value is 2.05%.

How did the “hERG current change (%, negative = inhibition) at 10uM” value turn out when Cc1cc(C)c2c(NC(=S)Nc3ccccc3)n[nH]c2n1 was run?
The value was 9.95%.

Cc1ccccc1C(=O)N1CCN(c2ccc(NC(=O)c3ccco3)cc2)CC1 was tested. Which “hERG current change (%, negative = inhibition) at 10uM” value did it give?
Its value is 5.43%.

How did the “hERG current change (%, negative = inhibition) at 10uM” value turn out when O=c1oc2ccccc2c(O)c1/C=C1\C=Nc2ccccc21 was run?
The value was 3.98%.

O=C(NC1CCCC1)c1c(O)nc2sccn2c1=O was tested. Which “hERG current change (%, negative = inhibition) at 10uM” value did it give?
The value was -2.05%.

With CC(C)N(Cc1ccccc1)C(=O)COC(=O)c1ccc2ncsc2c1 as the molecule, how does the “hERG current change (%, negative = inhibition) at 10uM” value read?
Its value is -10.1%.

How did the “hERG current change (%, negative = inhibition) at 10uM” value turn out when O=C(NNC(=O)[C@H]1CC=CC[C@H]1C(=O)O)c1ccc(Cl)cc1Cl was run?
Its value is 20.1%.

Cc1ccccc1OCC(=O)N(CC(C)C)c1c(N)n(CC(C)C)c(=O)[nH]c1=O was tested. Which “hERG current change (%, negative = inhibition) at 10uM” value did it give?
The value was 0.716%.

CCn1c(COc2ccc(C)cc2)nnc1SCc1ccc(C#N)cc1 was tested. Which “hERG current change (%, negative = inhibition) at 10uM” value did it give?
The value was -59.6%.

How did the “hERG current change (%, negative = inhibition) at 10uM” value turn out when O=C(Nc1c(F)cccc1F)C(c1ccccc1)c1ccccc1 was run?
Its value is 18%.

How did the “hERG current change (%, negative = inhibition) at 10uM” value turn out when CC(/C=C/c1ccccc1F)=N\NC(=O)c1ccc(Cl)cc1 was run?
Its value is 23.5%.

With C[C@@H]1NS(=O)(=O)[C@H]2C[C@@H]3C=C[C@]2(O3)[C@H]1OC(=O)c1ccccc1Br as the molecule, how does the “hERG current change (%, negative = inhibition) at 10uM” value read?
Its value is 4.24%.

For Cl.Nc1cnn(Cc2ccc(F)cc2)c1, which “hERG current change (%, negative = inhibition) at 10uM” value is on record?
The value was 15.1%.

For CN1CCCC(OC(=O)c2ccc(S(=O)(=O)N(C)C)cc2)C1.Cl (stereo not shown), which “hERG current change (%, negative = inhibition) at 10uM” value is on record?
The value was 8.58%.

With CC(C)c1onc(C(=O)NC(C)c2ccccc2)c1[N+](=O)[O-] (stereo not shown) as the molecule, how does the “hERG current change (%, negative = inhibition) at 10uM” value read?
Its value is 10.1%.

CC(C)CCNC(=O)CCCOc1cc(=O)n(C)c2ccccc12 was tested. Which “hERG current change (%, negative = inhibition) at 10uM” value did it give?
The value was -1.2%.

Cc1ccnc(Sc2nc3c(c(=O)[nH]c(=O)n3C)n2CCCc2ccccc2)n1 was tested. Which “hERG current change (%, negative = inhibition) at 10uM” value did it give?
The value was 13.5%.

How did the “hERG current change (%, negative = inhibition) at 10uM” value turn out when Cc1c(OCC(=O)NCC(O)c2ccccc2)ccc2c3c(c(=O)oc12)CCC3 (stereo not shown) was run?
The value was -8.23%.

How did the “hERG current change (%, negative = inhibition) at 10uM” value turn out when COc1ccc(-c2csc(N3C(=O)C4C5c6ccccc6C(c6ccccc65)C4C3=O)n2)cc1 (stereo not shown) was run?
Its value is 9.58%.

With N#Cc1ccccc1OCc1nnc(-c2ccccc2Br)o1 as the molecule, how does the “hERG current change (%, negative = inhibition) at 10uM” value read?
Its value is 14.1%.

CN(C)C(CNC(=O)C1CCN(S(=O)(=O)c2ccc(Cl)cc2)CC1)c1ccccc1 (stereo not shown) was tested. Which “hERG current change (%, negative = inhibition) at 10uM” value did it give?
The value was -27.2%.

With CCSc1ccccc1C(=O)N1CCCC1 as the molecule, how does the “hERG current change (%, negative = inhibition) at 10uM” value read?
Its value is -5.81%.

For COC(=O)C1C(=O)C2=C(CC1C)NC(=O)CC2c1ccccc1 (stereo not shown), which “hERG current change (%, negative = inhibition) at 10uM” value is on record?
The value was -10.2%.
